In the supplement of paper PMC3334620:
In all, about 33,000 sequences were measured (“E-score (-0.5 to 0.5)”: median about -0.041, highest 2% from about 0.37 on). Some of the results follow.

Target: T1, Ecm22 (UniProt Q05958)
T1 sequence: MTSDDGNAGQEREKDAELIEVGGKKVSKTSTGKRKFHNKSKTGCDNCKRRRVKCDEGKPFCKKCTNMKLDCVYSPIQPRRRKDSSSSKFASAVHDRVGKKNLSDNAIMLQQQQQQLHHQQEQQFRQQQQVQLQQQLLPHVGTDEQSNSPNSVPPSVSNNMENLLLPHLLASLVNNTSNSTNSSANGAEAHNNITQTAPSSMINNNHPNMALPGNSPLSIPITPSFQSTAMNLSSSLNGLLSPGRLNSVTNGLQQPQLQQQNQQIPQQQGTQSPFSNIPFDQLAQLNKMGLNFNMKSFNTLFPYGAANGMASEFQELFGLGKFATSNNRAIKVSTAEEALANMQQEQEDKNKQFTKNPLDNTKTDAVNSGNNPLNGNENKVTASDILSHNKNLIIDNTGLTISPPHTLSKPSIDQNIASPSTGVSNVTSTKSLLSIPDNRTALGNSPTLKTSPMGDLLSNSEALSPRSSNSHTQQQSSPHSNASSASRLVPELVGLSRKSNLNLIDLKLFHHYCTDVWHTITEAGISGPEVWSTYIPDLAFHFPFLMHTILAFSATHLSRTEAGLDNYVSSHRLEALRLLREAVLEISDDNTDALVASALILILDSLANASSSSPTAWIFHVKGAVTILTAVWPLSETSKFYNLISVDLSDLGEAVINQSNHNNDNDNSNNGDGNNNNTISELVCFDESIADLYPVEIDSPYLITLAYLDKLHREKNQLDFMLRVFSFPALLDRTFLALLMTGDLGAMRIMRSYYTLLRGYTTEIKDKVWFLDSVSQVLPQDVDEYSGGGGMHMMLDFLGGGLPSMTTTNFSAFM
Assay: PBM E-score (8-mer binding enrichment) (E-score (-0.5 to 0.5)); higher = stronger / more preferred TF binding; most listed sequences are background and not binding sites
Details: protein concentration: 200 nM; construct: GST-full length
How it was run: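 GST-tagged yeast TFs (full-length or DNA-binding domain) were made by PURExpress in vitro transcription/translation and applied at about 100-200 nM to universal all-10-mer Agilent arrays. The arrays were made double-stranded by primer extension, on fresh or once-stripped slides. Bound protein was detected with fluorescent anti-GST, and scans were normalised with masliner. Each ungapped eight-base word, pooled with its reverse complement, received an E-score (modified Wilcoxon-Mann-Whitney statistic) from the Universal PBM Analysis Suite.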

Row | Sequence | PBM E-score
1 | ACTCTAAT | -0.272
2 | ACTCCAAC | -0.175
3 | CACGTGTC | -0.132
4 | GGGCCCAA | -0.194
5 | CGGGGGGC | -0.00329
6 | GGGATTGA | -0.213
7 | GTGTTTCA | -0.0721
8 | CTCGGCGA | 0.185
9 | AAAGGAAA | 0.141
10 | ATGTAACA | -0.0858
11 | AGGAAGGC | -0.00096
12 | GCTATAAC | -0.0926
13 | CTTCAGAA | -0.108
14 | CCCTACGC | -0.174
15 | CCCCACCC | 0.0352
16 | GCCTGAAC | -0.198
17 | GGGCCACC | -0.191
18 | ATCAGCCC | -0.305
19 | CCATATTC | 0.0734
20 | CAATGTCC | -0.124
21 | ACCTTCGG | 0.188
22 | AAAAACCT | -0.093
23 | CTGCCCGA | -0.101
24 | AAATCGGC | 0.0214
25 | AGCAACCA | -0.178

Row | Sequence | PBM E-score
26 | CGGTGACC | -0.166
27 | AGTATTAG | -0.0209
28 | ATTGCCTG | -0.138
29 | GAACATTA | -0.0512
30 | AGGGCCTG | -0.273
31 | CCATCACA | -0.254
32 | AACTGATG | -0.063
33 | CACGGATG | -0.103
34 | AAAGGGTA | -0.0295
35 | AAGCGCCC | 0.0267
36 | CAAGGGGA | -0.15
37 | TCAAATCA | -0.277
38 | CGAGTCTA | -0.0505
39 | CGGACAGC | -0.0574
40 | CCGAGAGA | 0.102
41 | ACGCGCGA | 0.217
42 | AGTTATAT | 0.0387
43 | AACTCATA | -0.152
44 | GTACGAAA | 0.467
45 | GAACTATA | 0.0872
46 | ACTCTAGG | -0.187
47 | ACTCACCT | -0.149
48 | AAAGAGCA | -0.0945
49 | CGGGACAG | 0.225
50 | AGCGCCAA | -0.342

Row | Sequence | PBM E-score
51 | GAGTTTCC | 0.0316
52 | GTTGCTCA | 0.108
53 | ACAGAGTC | 0.017
54 | GTTACCAA | 0.149
55 | AATGGCGC | 0.0313
56 | AAGGTGGA | -0.0387
57 | CGGTAAAC | 0.206
58 | ATGCCAAA | -0.14
59 | CGATTACA | 0.198
60 | AGACATCG | 0.0391
61 | ATCCTGAA | 0.121
62 | CACAGCAA | 0.146
63 | ACTGCTAT | 0.0499
64 | CGACGTAA | 0.244
65 | GTCCCCGA | -0.198
66 | CGACTCAA | 0.163
67 | ACCGGTAT | -0.146
68 | GCGCAAGC | 0.0527
69 | ACGCTTAA | -0.0354
70 | ACACCAGC | -0.0747
71 | TAGACTCA | -0.0381
72 | ACTCGGTC | 0.229
73 | TACCATCA | -0.0824
74 | AGGGGACC | -0.184
75 | CGCTTTGA | 0.00616

Row | Sequence | PBM E-score
76 | ATAATAAA | 0.0541
77 | AACTCGCG | 0.232
78 | ACTAGTCC | -0.272
79 | ATTAGTTG | -0.0136
80 | GCCTACTA | -0.0227
81 | CTAATACC | -0.0714
82 | GGGTAAGA | -0.0686
83 | TCACCCGA | 0.119
84 | AAGAGCGG | 0.0698
85 | AGAGCAAT | -0.0859
86 | CACCTTTC | -0.0968
87 | GACATTGC | -0.263
88 | ATATTTAA | 0.0866
89 | CGGTACTC | 0.0418
90 | ATGGTCCC | -0.268
91 | GCATAAAC | 0.175
92 | CGGGCCAA | -0.282
93 | CACTAAGA | -0.0885
94 | AACATAGT | 0.0473
95 | ATAGCTCA | -0.149
96 | ATCCTGTC | 0.168
97 | TCAGACGA | 0.169
98 | AAAAAGAC | -0.218
99 | AGCTGATA | 0.0205
100 | CTAAGTAC | 0.153

Row | Sequence | PBM E-score
101 | AAGAGGAC | -0.187
102 | CACATCAC | -0.15
103 | CGGTGTCC | -0.0125
104 | ACTTTTTA | -0.153
105 | TGCCCTAA | -0.175
106 | AAGATAAC | -0.0598
107 | ACGTAGCT | 0.202
108 | GCAGCGCC | -0.0645
109 | ATCGTAAA | 0.436
110 | GGCGTGTA | -0.148
111 | CTGGGTGA | -0.204
112 | GCAACGCA | -0.0871
113 | CTACGTGC | -0.0502
114 | ATTTTATG | 0.0774
115 | AGACATAA | -0.0391
116 | GCAGAAGA | -0.0658
117 | CCAGTACG | 0.258
118 | GTCTTTAA | -0.114
119 | CCGTATAG | 0.465
120 | ACATAGCA | -0.131
121 | ACTGCTCG | 0.12
122 | CTATTTAA | -0.0533
123 | TAGGAATA | -0.149
124 | ATCGCGGG | 0.169
125 | AGTCTGAG | -0.0593

Row | Sequence | PBM E-score
126 | AGTTAAGG | -0.191
127 | GCGGGGAA | 0.0768
128 | AGAAAAAG | -0.24
129 | CTGCCAAG | -0.034
130 | GAAGGCCC | 0.0164
131 | CCTTCCCG | -0.043
132 | AGTCAGGA | -0.184
133 | TCGAGAAA | 0.0202
134 | AGGGAAGC | -0.105
135 | TCCTAGCA | -0.255
136 | CCGAATGC | 0.0774
137 | TTCAAGAA | 0.0932
138 | GGTTGTAA | -0.127
139 | CGGGCCGA | -0.134
140 | CGTTTGTC | 0.298
141 | GATTGCCC | -0.0259
142 | CTAACCAC | -0.0169
143 | ACTGCTTC | -0.0281
144 | AGGACTAG | -0.166
145 | GATGCACC | -0.0687
146 | CACTCTGC | -0.0119
147 | CGGGGGCC | -0.00222
148 | GGTCGGTA | 0.284
149 | AGACTGAT | -0.202
150 | CGTCAAGC | -0.0738

Row | Sequence | PBM E-score
151 | GTCCGTGA | 0.0485
152 | AATGTTCA | -0.116
153 | CAAGAAGG | -0.165
154 | GTGGACCA | -0.177
155 | CGTCGCGA | 0.297
156 | ACCTGGCT | -0.059
157 | AACATGAC | -0.134
158 | GCCATGGA | -0.181
159 | GAGTACGA | 0.426
160 | TCGGCTCA | -0.0533
161 | GCAGTATA | 0.00098
162 | AGTCCATC | 0.0216
163 | TATCGGAA | 0.157
164 | GTGCCCTA | -0.147
165 | GTCGCTTA | 0.37
166 | CTAGCGAC | -0.0257
167 | AATCCCAG | -0.152
168 | CAGACTAC | 0.028
169 | CTTAATTA | -0.14
170 | ATAGACTC | -0.0954
171 | CAACCTTA | -0.236
172 | CAAGCCAA | 0.103
